Experimental data as given in PubChem BioAssay AID1379 (National Center for Advancing Translational Sciences (NCATS), 2008).
Among all 200,000 compounds or so, about 560 (0.28%) were called active. This list was built around the results that the source calls inconclusive (neither active nor inactive); the mix of calls is not that of the screen. Calls follow the shape of the dose curve; as a rule, active = well fitted inhibition curve with a large enough effect; inconclusive = small, poorly fitted or top-dose-only effect; inactive = flat fitted curve, though single readings scatter. No potency is given beside an inconclusive call; the fits are too rough.

What follows are compounds tested against Luciferin 4-monooxygenase (Photuris pensylvanica) (UniProt Q27757) (assay: Counterscreen for Luciferase (Kinase-Glo TM) Inhibition). Conditions: ATP luminescence, 8 min; series mostly up to 38.3 µM.
How it was run: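 Compounds were added to a substrate mix at pH 7.2 (50 mM imidazole, 10 uM ATP, within the enzyme's linear range), followed by Kinase-Glo detection reagent; luminescence was measured after 8 minutes at ambient temperature.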
% is scaled to controls: 0 for no effect and ±100 for the full control effect; potency is read from the fitted curve at half-maximal effect; tags tell the direction and shape of the fitted curve.
Also: nearly all actives have a fitted effect of over 60% in size.

SMILES	Potency	activity change, negative = inhibition
CCCCOc1ccc(-c2cc(C(=O)NNC(=S)NCC)c3ccccc3n2)cc1	inconclusive [inhibitor, single point]	
COc1cc2c(cc1OC)C(C)N(C(=O)c1cc3c(s1)-c1ccccc1OC3)CC2 (centres undefined)	inactive	
Cn1cccc1/C=C1\CCc2ccccc2C1=O	active: 10 µM	
O=C1C(C=Nc2ccc(F)cc2)=C(O)c2ccccc21	inconclusive [inhibitor, partial curve]	
O=C(/C=C/Nc1ccc(F)cc1)c1ccco1	inconclusive [inhibitor, single point]	
Cc1cc(C(F)(F)F)n2[nH]c(=O)c(N=Nc3ccccc3)c2n1	inactive	
COc1ccc(C(=O)Nc2ccccc2C(=O)N/N=C/c2ccc(O)c(OC)c2)cc1	active: 1 µM	
Cc1cc2nc(-c3ccc(SCC(=O)N4CCOCC4)nc3)[nH]c2cc1C	inconclusive [inhibitor, partial curve]	
COc1cc(/C=C/C(=O)Nc2ccccc2C(F)(F)F)cc(OC)c1OC	inactive	
Cn1cccc1C(=O)Nc1nccs1	inconclusive [inhibitor, partial curve]	
CCN1CCCc2cc(CN(CCN3CCOCC3)C(=S)Nc3ccc(OC)cc3)ccc21	inactive	
CN(Cc1ccco1)c1ccnc(-c2ccoc2)n1	inactive	
O=C(O)C[C@H](Cc1ccc2c(c1)OCO2)C(=O)O		inactive: -3.67% [at 7.66 µM]
C/C(=C\C(=O)c1ccccc1)Nc1ccc(O)cc1	inactive	
CC(C)(C)C(=O)CN1CCN(S(=O)(=O)c2ccc(F)cc2)CC1	inactive	
O=[N+]([O-])C1=CC=C2C(=NC3(CCCCC3)N2O)C1=NCCc1ccccc1	inconclusive [inhibitor, partial curve]	
O=C(N/N=C/c1ccc(N2CCOCC2)cc1)c1cccs1	inconclusive [inhibitor, single point]	
Cc1ccc(C(=O)N2c3ccccc3CC2C)o1 (centres undefined)	active: 11.2 µM	
COc1ccc(N/C=C2\CCc3ccccc3C2=O)cc1	active: 11.2 µM	
c1ccc(-c2noc(-c3ccc4ccccc4c3)n2)nc1	active: 10 µM	
Cc1ccc(/C=C/C(=O)c2ccccc2)cc1	inconclusive [inhibitor, partial curve]	
Cc1cccc(-c2nnc(SCC#N)n2Cc2ccccc2)c1	inactive	
Nc1ccccc1S[C@@H](C[N+](=O)[O-])c1ccc2c(c1)OCO2		inactive: -6.91% [at 7.66 µM]
Cc1ccc(/C=N/NC(=O)c2ccoc2C)s1	inconclusive [inhibitor, single point]	
